From the supplement of paper PMC11417369
± gives the standard deviation of the averaged measurements. The list shows a part of the results.

These sequences were tested on PfAP2-EXP AP2 domain (GST-tagged) (assay: gcPBM binding intensity (ln(normalized median fluorescence intensity)); higher = stronger DNA binding).
Method in brief: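 An Agilent 4 × 180k array carrying primer-extended double-stranded 36-bp intergenic genomic probes and negative controls received GST-tagged P. falciparum DNA-binding domains expressed in E. coli, about 25 μg on average, for 1 h. The binding buffer contained 1× PBS, 1% milk, 0.2 mg/ml BSA, 0.5% salmon testes DNA and 0.03% Triton X-100. Binding intensity is the top Masliner-normalised natural-log median intensity across replicate spots of either probe orientation, read after Alexa488 anti-GST antibody staining and a 488 nm scan.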

| Sequence | gcPBM binding intensity (ln) |
| --- | --- |
| TCCATTCTATTTTTTACACACGTATGTAAATATTAT [CACACA_site2686] | 8.73 ± 0.47 |
| ATTTGCTTTTATTTTACACACTTGCTCCTGTTGTAC [CACACA_site1088] | 9.18 ± 0.56 |
| AAAAAAAAATATATTGCACACCTCTCAATAAAAAAA [CACACA_site172] | 8.63 ± 0.085 |
| TATTTCTTTTGGTTGGTGCATAAAATAATACAATAT [GTGCAC_site9916] | 8.96 ± 0.057 |
| CAGACCTCTTTGTCATGTACATAAAAAAATAAAGAA [XGTACX_site7887] | 8.82 ± 0.28 |
| TATAAACAGACGAAAACACACATATGTAAATATATA [CACACA_site4428] | 8.79 ± 0.57 |
| TACAAAAAGTTATACACACACGTACCTATAAATAGA [CACACA_site6571] | 8.62 ± 0.52 |
| ATAAAAATAATATCATGTACATATGTGTATTGTATT [XGTACX_site1768] | 8.54 ± 0.38 |
| AAAAAGCAGGATTATACACACAAATATTTATATGTT [CACACA_site6634] | 8.26 ± 0.42 |
| GCGTAGTTCGGAAGGGTGCTTTTTTGTTAATAAAAA [GTGCAC_site9592] | 8.46 ± 0.29 |
| TTATGTTATAAATACACACACAAAAGAAAAAAAAAA [CACACA_site7414] | 8.52 ± 0.45 |
| TCCCATAATATTAGTAGTACTATTAATATTTTCAGG [XGTACX_site4925] | 8.33 ± 0.42 |
| ATTTCTTTTTTTTCTTGTACACATATTAAATTTATG [XGTACX_site734] | 9.14 ± 0.47 |
| TTCTCTATAAATGCTGCACACACATTTAATTATTTA [CACACA_site8828] | 8.83 ± 0.38 |
| TCTAAACAAATTAATAAAATAAGTATTCAAAATTAT [CACACA_negctrl_site731] | 8.21 ± 0.45 |
| GTAAAATTTCGGATTTGTACACATGGCTATGAAAAA [XGTACX_site939] | 8.71 ± 0.35 |
| AATATTTATTTTTTTGCACACATATTTTACATTTTA [CACACA_site3182] | 9.04 ± 0.34 |
| TTCCCATGTAATATTAAACACACACCCATATAACAC [CACACA_site7905] | 8.99 ± 0.3 |
| TAACTACTAGAAAAAACACACAAAAAGTAAATATAT [CACACA_site2740] | 8.98 ± 0.85 |
| TATATAAATGTATACACACACATATAAATATAAATA [CACACA_site6751] | 8.46 ± 0.49 |
| ATTCTAATTACATATACACACAAAGGTTCATAACAA [CACACA_site3076] | 8.47 ± 0.37 |
| ATAAACAGATCATATACATGCATATATGTAGAATAA [TGCATGCA_site157] | 8.81 ± 0.33 |

| Sequence | gcPBM binding intensity (ln) |
| --- | --- |
| TAAAATATAAGACACACACACATATATTTATATATC [CACACA_site6248] | 8.76 ± 0.33 |
| TACCAAATCACCCCTTGTACCCATTTTAAAATTTTC [XGTACX_site396] | 8.94 ± 0.51 |
| TGTTTAACATTTATATGTACATATATTCACATATTA [XGTACX_site342] | 8.79 ± 0.4 |
| TGATTTTTTTTTTTTTTTTTTTTTTTTTTAGTTTGC [CACACA_negctrl_site1057] | 7.67 ± 0.54 |
| ACATACGAAAATTGGAAGGATAGATAAAAAGAAAAT [CACACA_negctrl_site51] | 8.89 ± 0.6 |
| GTACAGATGTAGTATGCATGTAATTATATATAAATT [TGCATGCA_site292] | 9.06 ± 0.28 |
| ATATAAAAAAGAGGGAGTACTTGTAACAAAATAATA [XGTACX_site8679] | 8.96 ± 0.4 |
| ACATGTTCATAATTTTGTACATATTTTTATGAACAT [XGTACX_site3976] | 8.85 ± 0.36 |
| ACGTAGTAGGTATTATGTACATATTTATAAGTATAA [XGTACX_site7336] | 8.63 ± 0.44 |
| ATATATTCATTTTTATGTACGTAAATTGTAAATTGG [XGTACX_site8242] | 8.5 ± 0.071 |
| TGCATTATTTTATGAAGTACATATGAACAAAAAATT [XGTACX_site2185] | 8.68 ± 0.3 |
| AAAATAATAATAAAAAGTACATGTGTATATAATAAA [XGTACX_site754] | 8.97 ± 0.49 |
| AAATTATCCAAAAATTGTACTTAAAACAACATAAAA [XGTACX_site6238] | 8.51 ± 0.3 |
| AAAGAAGGTAAACACACACACACACCGACAAAAAAA [CACACA_site9255] | 8.7 ± 0.6 |
| TTTCTCTTATTCCAATCTATAATAAGTATCAATATT [CACACA_negctrl_site179] | 8.46 ± 0.47 |
| ACCATTTGTAGGTAAACACACATTATTCTTAATATC [CACACA_site5453] | 8.43 ± 0.38 |
| AATATTAAACAAATGAAAAAAAAATATATATTATAT [CACACA_negctrl_site742] | 8.57 ± 0.36 |
| TATGTTTTTCGGTATGCATGCATATGCTTAATAATA [TGCATGCA_site184] | 9.83 ± 0.33 |
| TTTAATTAAAATATATGTACATATATATATATATAT [XGTACX_site4517] | 10.4 |
| AAAATAACACAAATGGGTACATATTATATTAAATAA [XGTACX_site7027] | 8.51 ± 0.34 |
| AATATATATATGATTATATATATATATATATATATA [GTGCAC_negctrl_site290] | 9.91 ± 0.53 |
| TTTTTTTCGTATATTACACACTATATATAGAAATTA [CACACA_site298] | 8.56 ± 0.35 |

| Sequence | gcPBM binding intensity (ln) |
| --- | --- |
| GGAGAAAAAAAAAAAAAACACACGGTACATTCAAAG [CACACA_site1503] | 8.69 ± 0.72 |
| AAAAAATGTAAATATAAACAACCAAAGGGGGTATAC [GTGCAC_negctrl_site465] | 8.84 ± 0.49 |
| TTATTAAAGGAAAAATGTACATATAAATGAATATGT [XGTACX_site23] | 8.62 ± 0.28 |
| GAAAAAAAACACATTGTGCACTTTTCCTTAAGTATA [GTGCAC_site9475] | 8.68 ± 0.15 |
| TTAAAGTATAACTGTACATGCGAGTAAAAGAATGAC [TGCATGCA_site899] | 9.57 ± 0.43 |
| TACGTGAAGTTATATACACACATAAATATGTCTGTA [CACACA_site7463] | 8.21 ± 0.4 |
| ATAATATTTTATGGTTGTACTTTTAGTTCTTTTTTT [XGTACX_site5756] | 8.51 ± 0.42 |
| ATTAAATATATTTTGCGTACACAAAAAAATACGTTC [XGTACX_site3862] | 8.87 ± 0.38 |
| AAAAAAAAAAAGCACACACACATATGCGTATATATA [CACACA_site954] | 8.49 ± 0.57 |
| ATTACCATATTTTGTACACACATCTTTATCTCAATA [CACACA_site3217] | 9.05 ± 0.49 |
| TAAAAATTAAAGTGTACACATATATATATATATATA [CACACA_site4781] | 10.2 ± 0.38 |
| TATAAACCGACGAAAACACACATATGTAAATATATA [CACACA_site491] | 8.94 ± 0.59 |
| TTTTATGTTTATGTGGTGCATGTTTTGAAGAAAATA [GTGCAC_site9616] | 9.02 ± 0.18 |
| AAACCTATGTATATTATACACACTCCAAACTATTAT [CACACA_site8536] | 8.64 ± 0.44 |
| CGGGGGTAGTTTTATGCACACGTTTATTAATGCTTC [CACACA_site5717] | 9.43 ± 0.61 |
| TGAAAAACTATCAGAGTGCATATATAGCTCGATACA | 8.64 ± 0.28 |
| ACCAATAATATACATACACACATAAATGTTTATATA [CACACA_site4328] | 8.57 ± 0.65 |
| ACATGAATATATACACGTACATATATACATATATAT [XGTACX_site5872] | 8.51 ± 0.18 |
| TAAAATAATATATGGTGTACACAAAAGTATAAATAA [XGTACX_site4991] | 9.13 ± 0.42 |
| TATATATATATATTATGTACTCATTTATTATCTTTT [XGTACX_site8051] | 9.97 ± 0.13 |
| ATATAAAAAAAATTTAGTACATATATATATATATAT [XGTACX_site8635] | 10.2 ± 0.48 |
| AAAAAAATAATTAACACACACATGTATATCTATATA [CACACA_site3139] | 8.41 ± 0.61 |

| Sequence | gcPBM binding intensity (ln) |
| --- | --- |
| ATATGATTTGGATGTAGTACATATTTTTTTATGTTT [XGTACX_site1929] | 8.56 ± 0.36 |
| AACCAAATTTCACCATGTACATATTGATAAATATAT [XGTACX_site1374] | 8.7 ± 0.34 |
| GCACCAAAAAAAAGACGTACAGTTATATTAAAATAG [XGTACX_site8926] | 8.825 ± 0.078 |
| AAATGAACAAGTGGCACACACACATTCTAACTAATT [CACACA_site3203] | 8.53 ± 0.55 |
| ATATATATATGAATCACACACAAAAAATATAGAGAT [CACACA_site3913] | 9.4 ± 0.085 |
| TTATAAAGAAAAAATTGCTTTAAAAGAAAGATTACA [CACACA_negctrl_site960] | 8.15 ± 0.33 |
| AAAAACAAAATTTGGAGTACAGTTATAATATTATTA [XGTACX_site5245] | 8.34 ± 0.042 |
| TGATTATCCTTCAGGAGTACATATAATATAATATAT [XGTACX_site1479] | 8.55 ± 0.23 |
| AATGAAAAGAAATAATAAATAAATGATGACCAGCTG [GTGCAC_negctrl_site398] | 8.74 ± 0.36 |
| ACCTTTAATAAATACACACACATAAAAAAAATATAT [CACACA_site5086] | 9.24 ± 0.45 |
| AATGAACAGACGAGCACACACACACCCATATATATA [CACACA_site1018] | 8.85 ± 0.35 |
| TAATGTATTATTTAATGTACTTAAAAAATAAATAAA [XGTACX_site3296] | 8.39 ± 0.18 |
| GGGGAGCTATCTCCTGCACACACAATTTTTTTTTTT [CACACA_site8703] | 8.89 ± 0.38 |
| CACAAATATATACATACACACATATATACGCATATA [CACACA_site395] | 8.53 ± 0.36 |
| TATTATATGAATAATTGTACGAAATTTAAAAGACAA [XGTACX_site7558] | 8.68 ± 0.34 |
| ATCACTAATTTTTTTACACACCACAATTTAATTTTT [CACACA_site1186] | 8.88 ± 0.35 |
| AAATGTGTTAATGTGCGTACACATATATATAATATT [XGTACX_site2792] | 8.52 ± 0.27 |
| AATATATACACATGCGCACACACAAGTGGGAAATTT [CACACA_site8527] | 8.92 ± 0.45 |
| TTTTTTTTTTTTTTTTTTATATTTCATAATTTCATT [XGTACX_negctrl_site579] | 8.18 ± 0.37 |
| TTTATATTTCATTTGTTATTTTTCTTGGTTCTATAT [TGCATGCA_negctrl_site23] | 8.67 ± 0.11 |
| TCATTTAAGTCATATTGAAATATGCATTATTCAAAA [CACACA_negctrl_site958] | 8.3 ± 0.33 |
| TTTTGCCTGAACAATGCATGTTATTTTTATTTTTTT [TGCATGCA_site673] | 8.77 ± 0.43 |
